# Some of the results follow. The list includes weakly bound sequences.
# Target: MaxL homodimer (UniProt P61244)
# Assay: universal protein-binding microarray (PBM)
# Settings: PBS-based mixture, 10 nM His-tagged protein dimer, 2% milk, 200 ng/uL BSA, 50 ng/uL salmon testes DNA, 0.02% TX-100; detection with Alexa 488 anti-His …; high values mean tight binding; most listed sequences are background and not binding sites; double strand, one strand shown
# UniProt P61244, sequence (P61244 whole entry): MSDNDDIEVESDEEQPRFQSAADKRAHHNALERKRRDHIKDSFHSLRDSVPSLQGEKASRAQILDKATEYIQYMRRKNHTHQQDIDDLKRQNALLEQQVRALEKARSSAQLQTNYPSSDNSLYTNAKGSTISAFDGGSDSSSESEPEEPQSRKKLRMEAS
row,Sequence,binding signal (normalized occupancy)
1,CTTTCCTC,0.0743
2,TGTGACAA,0.0875
3,CCGAGATA,0.0699
4,GCAAGCCA,0.0722
5,AGTTGAGA,0.0744
6,AAGGCGCT,0.0679
7,ATTACATG,0.0934
8,GAGTAGCA,0.075
9,GTTCATTA,0.079
10,CCTTAGTA,0.0739
11,CGATCCTA,0.0792
12,AGAATGCC,0.075
13,TATCGGCA,0.0743
14,AAGATAGG,0.0768
15,GAGGCTAA,0.0706
16,AGCGTCGA,0.0739
17,CTAACAAA,0.0751
18,CCACACAC,0.0837
19,ACGCACCC,0.0848
20,CTATCAGA,0.0804
21,ATGACCAA,0.0742
22,CCCGAACG,0.0704
23,GAACGATC,0.0784
24,GTCACAAA,0.0732
25,ATCCGGAA,0.0707

row,Sequence,binding signal (normalized occupancy)
1,ACACTCGT,0.0776
2,GTACTATA,0.0835
3,AGACAACA,0.0786
4,CCAACACC,0.0724
5,AGGCATCA,0.0717
6,ACGAAACG,0.0766
7,ACAGTACC,0.075
8,ACCTTGCG,0.0745
9,AAGGAGGC,0.0691
10,AGGTTATG,0.0792
11,GCATCTCC,0.0715
12,AGAACGTG,0.1
13,GCGGTGCA,0.0708
14,AGTCGGAA,0.0708
15,AGTTGCCA,0.0686
16,GGAAGTAA,0.0746
17,AGAATGAC,0.0746
18,GACCTTGC,0.0719
19,GACAGCGA,0.0666
20,ATCGTAGG,0.0753
21,AGACCACG,0.0888
22,GACTAGCA,0.0719
23,AGACCCGA,0.0742
24,CAGGCAGG,0.076
25,ATCCCCTA,0.0832

row,Sequence,binding signal (normalized occupancy)
1,ATTACCAC,0.0824
2,AGTCGGAC,0.0684
3,CCTGCTCC,0.0763
4,ACATGAGC,0.0906
5,CGTTTTCC,0.0776
6,TAACCTCA,0.0782
7,CCAAAGTA,0.0715
8,ACTTTAAC,0.0746
9,ATATAGGC,0.0804
10,CTACGATC,0.0733
11,GCGTTATA,0.0833
12,ACAATAGC,0.0757
13,ATCCGCCC,0.0753
14,ACGTGACT,0.0933
15,CTATCGCA,0.0749
16,ACAGGCTA,0.0747
17,ATGATAGG,0.0776
18,CTGAAATC,0.0754
19,ATCGATAA,0.0838
20,ACACCATC,0.0824
21,ATGCGCTA,0.0862
22,CGAACCAC,0.0771
23,AGCTAGCG,0.0689
24,CAGCAACG,0.0786
25,AAAAGAGC,0.0732

row,Sequence,binding signal (normalized occupancy)
1,GGATAGCA,0.0805
2,AAACCTCA,0.0787
3,CATTCTTC,0.0745
4,AAAGTCAT,0.0813
5,GTGCAGCA,0.0808
6,ACTCGGAA,0.0704
7,ACACCTCA,0.0821
8,CATGCCCC,0.0965
9,AAAAAATA,0.0762
10,GGTACGGA,0.0731
11,AAAAAGTA,0.0775
12,GGTTGTAA,0.0812
13,AAGAGTGG,0.0772
14,TTATACAA,0.0701
15,GGTACCTA,0.0718
16,AGGGCCTC,0.0701
17,GAACTTAA,0.0697
18,AACAACTA,0.073
19,TAGTTGAA,0.071
20,AGCTAGAC,0.0672
21,AAGTCGTC,0.0749
22,AACTACTG,0.0716
23,GCGTCGAA,0.0725
24,ATTCAATG,0.0799
25,ATGCAATA,0.0887

row,Sequence,binding signal (normalized occupancy)
1,AGTGCCTA,0.0681
2,GTAGCAAA,0.0754
3,AGTCAATC,0.0756
4,AGATAACT,0.077
5,GCTGCAAC,0.0774
6,AAATCCGA,0.0705
7,CAAAATTG,0.0748
8,CGACCAAG,0.0687
9,ATCACGGA,0.0707
10,ACCGGGGC,0.0689
11,ATGCCAGG,0.0791
12,ACCTCCAG,0.0721
13,GCTCTCCA,0.0729
14,CTTCGGTA,0.0698
15,ATTGTCCA,0.0749
16,GTTTAAGA,0.0713
17,ATCACCTC,0.0833
18,CCCGGGGA,0.0719
19,AAGCTAGC,0.0689
20,CGATAGCG,0.0747
21,ATCCCCCG,0.0843
22,GCCGAACC,0.0731
23,ACATAGCA,0.0807
24,ATACTAAT,0.0799
25,AACACCCC,0.0827

row,Sequence,binding signal (normalized occupancy)
1,GAGCTCGC,0.069
2,CGAACACA,0.0775
3,GTGGGTGA,0.0842
4,AATTCGAA,0.0751
5,AGCAGAGC,0.0662
6,CGAGATCA,0.0751
7,GGACAAAC,0.077
8,AACTCCTA,0.0732
9,GAAAAGCC,0.0673
10,AAACATAC,0.0888
11,CAGCCCAG,0.0713
12,CATGAATG,0.0895
13,GCGCTACA,0.0715
14,CACATGAA,0.104
15,CATACTCG,0.0813
16,GGCTGGAC,0.0689
17,ACTGGGTG,0.0784
18,CACGACCC,0.0825
19,CTCGCCGA,0.0701
20,ATCCCTTA,0.0721
21,CTATATAC,0.0879
22,ACCAATTA,0.074
23,AACTTTGT,0.0751
24,ATAAGATC,0.0786
25,AGTCCGCA,0.0691

row,Sequence,binding signal (normalized occupancy)
1,CGCTAAAA,0.0765
2,ACCACAAG,0.0766
3,AACTTCCC,0.0735
4,AGTAGTTG,0.0722
5,AACAAGGT,0.0753
6,ATCGAGCA,0.0737
7,AAAGGATA,0.0808
8,CAAGATGG,0.0765
9,TCGGTAGA,0.0681
10,CTATTGGA,0.0718
11,AAAACGGC,0.0699
12,AGCTTGTG,0.0721
13,GGACCTTA,0.0769
14,AAAATCAT,0.0769
15,CCAGAACG,0.0763
16,AACAGCCG,0.0745
17,ACTACACC,0.0784
18,GGCCAAAC,0.0669
19,ACCGACCC,0.0764
20,ATATTTTA,0.0804
21,GCCTTGTA,0.0765
22,AAGTTTTA,0.0709
23,CATGCTTC,0.106
24,ATAATACG,0.0771
25,GGTGCTCA,0.0774

row,Sequence,binding signal (normalized occupancy)
1,CGTCCCCC,0.0763
2,GGGGCCTA,0.0764
3,AAGTGAGG,0.0763
4,ACGTATCC,0.0826
5,CGCGATTA,0.0731
6,ATACCGAA,0.0724
7,GAGGATCA,0.0709
8,ACCCGCCG,0.073
9,CATGCAGG,0.097
10,CAGTAAGG,0.0715
11,CGGTATAG,0.0773
12,GCCGTCTA,0.0699
13,GGGCACAC,0.0814
14,ACCCTAGT,0.0814
15,CAGCTCAG,0.0738
16,TATTCTAA,0.0794
17,GGGCCTTA,0.0795
18,CCACGAGG,0.182
19,ACACTAGT,0.0808
20,ACACCCAC,0.0818
21,ATATAGAC,0.081
22,AGTAATAT,0.0804
23,ACTTCCAG,0.0719
24,CCTAGCGA,0.0701
25,GTATCCAC,0.0779

row,Sequence,binding signal (normalized occupancy)
1,GTTGAACA,0.0747
2,AACTCGCT,0.0727
3,CTTGGATA,0.0742
4,AGATTGCT,0.0707
5,CGCTCTAA,0.0739
6,AAGCCAAA,0.0681
7,TCTTAACA,0.0828
8,ATCACATC,0.0862
9,CAAAGGGG,0.0748
10,AAGAGGCT,0.0725
11,TAAAAGTA,0.0741
12,AACAGGTT,0.0777
13,TCTATCCA,0.0798
14,TATCGCAA,0.0727
15,ATTAGGGA,0.0744
16,AAATAGAC,0.0765
17,GATCCTTA,0.0763
18,ATCAGCAG,0.0784
19,AGCATACT,0.0804
20,TGTTTAAA,0.079
21,CAGTGCGC,0.0764
22,AACGGAGC,0.0727
23,ACAAATTG,0.0753
24,AGAAGCAC,0.0778
25,GGGGAAAA,0.0738

row,Sequence,binding signal (normalized occupancy)
1,AGTCGGCA,0.0757
2,AACAAACA,0.0822
3,CAAAGTTG,0.0673
4,CGGCAATC,0.0716
5,GAAGAAAA,0.0726
6,TCGCGTAA,0.0735
7,AAGTGATT,0.0761
8,CACGTGAC,0.464
9,GTTCGCTA,0.0757
10,CCAGTATC,0.0758
11,AAGTGCGT,0.0808
12,CGCGGCTA,0.0695
13,ACCCCTAG,0.0748
14,CGATTGCG,0.0733
15,CAGAACCA,0.0718
16,TAATTATA,0.0763
17,ATTATTAG,0.0828
18,AATGCATC,0.0763
19,ATTAACAA,0.0771
20,CGTATTTA,0.0795
21,GAGCTTAC,0.0705
22,AAAGAAGG,0.0766
23,AGCTAAAT,0.0741
24,GTTATTTA,0.0809
25,ATCAAAGG,0.0751

row,Sequence,binding signal (normalized occupancy)
1,ATCGCCAA,0.0746
2,ATATAGCA,0.0884
3,ACAACCTC,0.0799
4,CTCCGGAG,0.0721
5,CCTATGAC,0.0778
6,CGGTGCAG,0.0703
7,CCATTCGA,0.0764
8,ACCCGACA,0.0733
9,CCTCAATC,0.0737
10,CAACTGAG,0.0721
11,AAACCTTA,0.0742
12,ACGGAGGC,0.069
13,TAGGGGCA,0.084
14,AATTGTTC,0.0726
15,GACCTTAC,0.0765
16,AAGTCTCA,0.0786
17,ATTTAAAA,0.0757
18,CTGAAAGA,0.073
19,ACTCGACG,0.0745
20,CTTTGCCC,0.0688
21,AAATCGCC,0.0738
22,GGATGTAC,0.0841
23,CACAGGCC,0.0715
24,ATCTGCTA,0.08
25,CAGTTCGC,0.072

row,Sequence,binding signal (normalized occupancy)
1,AATACACT,0.0756
2,CCGGCAGC,0.0744
3,AACGCCTG,0.0733
4,GTCTCTTA,0.0792
5,GACGTCGC,0.0783
6,CATATCGA,0.078
7,CAAGGTAC,0.0675
8,TAGATTCA,0.0731
9,GAGTACGC,0.0747
10,ATGAAGGG,0.0755
11,CAGGGAGG,0.0695
12,CAGACAAG,0.0731
13,CTTCGGCA,0.0664
14,AACCGAAA,0.0692
15,AAACTCTC,0.073
16,GCAGCGAC,0.0706
17,GCAATAAC,0.0746
18,ATCGTTCG,0.0755
19,ACATAACC,0.0836
20,TGTCCCAA,0.0689
21,AAGCGATT,0.0674
22,CAGCCATA,0.0782
23,AACCCCAG,0.0791
24,AACGAGAT,0.0745
25,ACCCGAAG,0.0738

row,Sequence,binding signal (normalized occupancy)
1,ATGGCACG,0.0985
2,CGCCTTTC,0.0692
3,CCCGACTA,0.0677
4,CGTCTTTC,0.0742
5,GACCATAA,0.0831
6,ACATGTCC,0.0918
7,ACGAAAGG,0.074
8,CAGATACC,0.0814
9,CGTCTCAG,0.0684
10,ACGGGGGC,0.0822
11,GTGAATGA,0.0863
12,ATCATTAC,0.0816
13,CGAGTTAC,0.0701
14,AACTGACG,0.0702
15,CCTGACCG,0.0715
16,GTCTCGAA,0.072
17,GTATACTA,0.0768
18,CCTGGCCA,0.075
19,ACGCAGAG,0.0689
20,ACAGCTAA,0.0743
21,ATCAATTA,0.0797
22,CTTGTCTC,0.0682
23,AGGGATCA,0.0775
24,AATATTTG,0.0793
25,AGTGCTTG,0.0725

row,Sequence,binding signal (normalized occupancy)
1,CAGTTAGA,0.0676
2,GTACGTAA,0.0761
3,CGGTGGTC,0.0775
4,CGTTCGAG,0.0712
5,CCCTCCAC,0.0803
6,CCGGGCAA,0.0681
7,ATGACCAT,0.0816
8,AAAGCTCG,0.0667
9,AGTAAAAG,0.0753
10,GCAGCTTA,0.0685
11,AGACACAG,0.0736
12,CCTACGCC,0.0691
13,GGTCGCAC,0.0729
14,ACAAGAGT,0.0745
15,GACGCAAA,0.0697
16,CAGGAAGG,0.0681
17,AAAGATGG,0.0775
18,CATACACA,0.0892
19,ATGTGGAC,0.0955

# — PMC4242493
